Laboratory results from PubChem BioAssay AID1159614 (National Center for Advancing Translational Sciences (NCATS), 2016).
Screen size: about 45,000 compounds; about 65 (0.1%) were called active. Calls come from the whole dose curve; as a rule, active = well fitted activation curve with a large enough effect; inconclusive = small, poorly fitted or top-dose-only effect; inactive = no such curve, though single readings can be large or run the other way. The list shows a part of the results.

These compounds were tested against Galactocerebrosidase (Homo sapiens) (UniProt P54803) (assay: A Novel Cell-Based Assay to Identify Small Molecules for B -Galactocerebrosidase). Settings: 145M-Twi-hGALC-G270D cells (Twitcher mouse brain line with human GALC G270D), HMU-beta-Gal fluorescence, 48 h; series mostly up to 57.5 µM; activation: at the top concentration.
Sequence of UniProt P54803 (P54803 whole entry, looked up): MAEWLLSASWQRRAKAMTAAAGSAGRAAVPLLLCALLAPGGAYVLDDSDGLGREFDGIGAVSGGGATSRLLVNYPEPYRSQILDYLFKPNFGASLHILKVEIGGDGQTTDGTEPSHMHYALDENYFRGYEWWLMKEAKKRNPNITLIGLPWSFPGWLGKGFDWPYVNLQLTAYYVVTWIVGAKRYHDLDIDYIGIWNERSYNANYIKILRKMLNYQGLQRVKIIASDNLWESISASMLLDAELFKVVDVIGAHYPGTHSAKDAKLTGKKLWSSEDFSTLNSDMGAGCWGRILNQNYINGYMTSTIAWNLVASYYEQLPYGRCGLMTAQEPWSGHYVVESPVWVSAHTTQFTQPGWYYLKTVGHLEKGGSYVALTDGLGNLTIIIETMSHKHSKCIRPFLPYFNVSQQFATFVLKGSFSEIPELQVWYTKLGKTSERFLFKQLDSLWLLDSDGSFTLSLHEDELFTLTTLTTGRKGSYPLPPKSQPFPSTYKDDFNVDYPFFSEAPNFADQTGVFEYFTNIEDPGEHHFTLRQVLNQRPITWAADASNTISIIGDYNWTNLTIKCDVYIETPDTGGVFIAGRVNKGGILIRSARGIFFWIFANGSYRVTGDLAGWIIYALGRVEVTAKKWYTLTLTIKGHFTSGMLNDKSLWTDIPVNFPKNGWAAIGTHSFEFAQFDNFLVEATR
How it was run: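 Fluorogenic HMU-b-Gal hydrolysis (0.1 mM final, pH 5.2 citrate-phosphate with 1 mg/mL sodium taurocholate; carbonate stop buffer) measures mutant GALC activity after compound treatment of live 145M-Twi Twitcher brain cells stably carrying human GALC-G270D, with wild-type GALC line alongside; activation sought.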
Note: 0% is about no effect; nearly all actives have a fitted effect of over 65% in size.

activation, inactive:
Cc1cc(NC(=O)C2CCCN(S(=O)(=O)c3cccc4nsnc34)C2)ccc1Br (stereo unspecified) -16.6%
CCCOc1ccc(CNC(=O)CN2C(=O)c3cccnc3Oc3ccc(C)cc32)cc1 2.03%
O=C(NCCCO)c1nn(-c2ccc(Cl)cc2)nc1CO -10.5%
COC(=O)C1CCN(c2csc3ccc(Cl)cc3c2=O)CC1 -9.95%
O=C(CN1C(=O)COc2ccc(S(=O)(=O)N3CCOCC3)cc21)N1CCN(c2ccccc2F)CC1 7.28%
Cc1ccc(NC(=O)C(=O)NCC2(c3ccccc3)CCCC2)cc1C -11.7%
CCc1cccc(NC(=O)c2c(C)oc3nc(C)nc(N4CCCC4)c23)c1 8.3%
COc1ccc(C(=O)N(Cc2cc(OC)c(OC)c(OC)c2)C2CCS(=O)(=O)C2)cc1Cl (stereo unspecified) -6.01%
CCc1ccc(NCc2cc3ccc(OC)cc3n(CC(=O)Nc3ccc(C)c(Cl)c3)c2=O)cc1 3.74%
COc1cc(OC)c(OC)cc1CNCCCSc1nnnn1C -6.2%
CCc1ccc(OCc2cc(=O)n3cc(C)sc3n2)cc1 -14%
CCOc1ccc2oc(=O)cc(CN3CCN(c4ccccc4OC)CC3)c2c1 -11.4%
COc1cccc(NC(=O)Cn2c(=O)n(CCc3ccc(OC)c(OC)c3)c(=O)c3ccccc32)c1 2.19%
CCOc1ccc(-c2nc(SCC(=O)Nc3cc(F)ccc3F)n3[nH]c(=O)cc3n2)cc1 -15.1%
COc1ccc(-c2ccc(=O)n(CC(=O)Nc3ccc(OC)c(OC)c3)n2)cc1 -7.44%
Cc1ccc(C(=O)c2oc3ccccc3c2NC(=O)Cc2ccccc2)cc1 7.39%
CCCCn1c(=N)n(CCOc2ccccc2OC)c2ccccc21 -16.2%
CCC(=O)N1CCc2cc(OC)c(OC)cc2C1COc1ccc2c(C)cc(=O)oc2c1 (stereo unspecified) -11%
COc1ccc(C2c3c(n(C)c4ccccc34)C(=O)N2CC(=O)Nc2ccc(F)cc2)cc1 (stereo unspecified) -16.8%
COCCNC(=O)C1=CC(c2ccc3c(c2)OCO3)=NS(=O)(=O)N1C -13.4%
CC(C)c1ccc(CNc2n[nH]c(-c3ccco3)n2)cc1 -32.8%
Cn1cc(S(=O)(=O)N2CCOCC2)cc1C(=O)Nc1cccc(C#N)c1 5.1%
CC(C)Oc1ccc(CNC(=O)Cn2nc(N3CCN(c4ccccc4)CC3)ccc2=O)cc1 -7.3%
Cc1ccc(CSc2nc(-c3ccccc3C)nc3c2Cc2c(CO)cnc(C)c2O3)cc1 -2.98%
O=c1[nH]c2ccccc2n1CCCN1CCN(C(c2ccccc2)c2ccccc2)CC1 -10.5%
Cn1c(=O)c2c(SCC(=O)N3CCc4ccccc43)nc(-c3ccc(Cl)cc3)nc2n(C)c1=O -13%
O=C1N(Cc2ccccc2)c2ccccc2C1(O)c1c[nH]c2ccccc12 (stereo unspecified) -8.89%
Cc1ccc(NC(=O)C2CCCN2S(=O)(=O)c2ccc3c(c2)n(C)c(=O)c(=O)n3C)cc1C (stereo unspecified) -3.92%
Cn1ncc2c(NCc3ccc(F)cc3)ncnc21 -10.5%
CCOC(=O)c1c(S(=O)(=O)N2CCC(C(=O)N3CCN(c4ccc(F)cc4)CC3)CC2)c(C)n(C)c1C -9.1%
CCn1nnc2cc(C(=O)Nc3ccc(Br)cc3F)ccc21 -12.4%
CN(C)S(=O)(=O)c1ccc2c(c1)N(CC(=O)NCc1ccccc1)C(=O)C1CCCCN21 (stereo unspecified) 2.01%
Cc1ccccc1CCNC(=O)c1ccc2c(c1)c(C)c(C)n2C -6.11%
O=C(O)Cc1ccc(CCNS(=O)(=O)c2ccc(Cl)cc2)cc1 -7.73%
CCCCCn1c(=O)[nH]c2cc(C(=O)Nc3cc(OC)cc(OC)c3)ccc2c1=O -16.8%
Cn1nnnc1SCCCNCc1ccc(-c2ccc(Br)cc2)o1 -13.7%
Cc1cccc(CNC(=O)C2CCCN(S(=O)(=O)c3cn(C)cn3)C2)c1 (stereo unspecified) -12.7%
COc1ccccc1CNC(=O)CCn1c(=O)c2ccccc2n(CC(=O)Nc2ccc(C)cc2)c1=O 6.26%
Cc1ccc2oc(=O)c3cc(C(=O)N4CCN(c5ccccc5)CC4)sc3c2c1 3.57%
Cc1ccc(NC(=O)CSc2nc3ccccc3nc2Cc2ccccc2F)cc1F 7.73%
Cc1nn(S(=O)(=O)c2ccc(C(C)C)cc2)c(C)c1S(=O)(=O)N1CCCCCC1 -4.72%
CCCCCNC(=O)c1c[nH]c2ccc(S(=O)(=O)N3CCC(C)CC3)cc2c1=O -10.9%
CCC1CN(C(=O)NCc2ccc(C)cc2)c2cc(C)ccc2O1 (stereo unspecified) -10.6%
CCc1ccccc1NC(=O)C1(S(=O)(=O)c2ccc(Cl)cc2)CC1 -11.3%
COc1ccc(-c2nsc(NC(=O)COc3ccc(C)c(C)c3)n2)cc1 5.3%
Cc1ccc(OCC(=O)Nc2ccc(Cl)c(-c3nc4ncccc4o3)c2)cc1C -4.61%
Cc1cc(C)cc(NC(=O)CN2C(=O)CSc3ccc(S(=O)(=O)N(C)C)cc32)c1 -4.1%
CCOC(=O)c1c(C)oc2ncnc(Nc3ccc(F)cc3Cl)c12 -9.25%
Cc1ccc(C)c(N2CCN(C(=O)c3cc4ccc5cccnc5c4[nH]3)CC2)c1 -7.12%
COc1ccc(CNC(=O)c2cc3c(=O)[nH]c4ccc(C)cc4c3s2)c(OC)c1 -21.7%
COc1ccc(CCNC(=O)c2cc(-c3ccc(C)cc3)nc3n[nH]c(-c4ccccc4)c23)cc1OC -11.1%
COc1ccc(OC)c(NC(=O)CCn2cnnn2)c1 -1.3%
COc1cc(C(=O)Nc2nnc(S(=O)(=O)N(C)c3ccccc3)s2)cc(OC)c1OC -15.1%
Cc1ccc(CN2C(=O)c3ccccc3Sc3ccc(C(=O)NC4CCCCC4)cc32)cc1 -4.17%
COc1ccc(-c2oc3ncn4nc(-c5cccc(C)c5)nc4c3c2-c2ccc(OC)cc2)cc1 -11.7%
COc1ccccc1CNC(=O)CS(=O)(=O)c1cccc2nsnc12 -7.82%
Cc1ccc(-c2nc3n(n2)C(c2ccccc2C)C=C(c2ccc(Cl)cc2)N3)cc1 (stereo unspecified) -0.743%
COc1cc(C(=O)NCC(c2ccc(N(C)C)cc2)N2CCc3ccccc32)cc(OC)c1OC (stereo unspecified) -12%
COc1ccc(CNC(=O)C2CCN(c3nc4ccccc4[nH]3)CC2)c(OC)c1 -17.7%
CN1CCN(C(c2ccccc2)c2ccccc2)CC1 -13.4%
COc1cc(CN(C(=O)COc2ccc(Br)cc2)c2ccccn2)cc(OC)c1OC -36.2%
O=C(NC1CC(=O)N(c2ccc(F)cc2)C1)c1cccs1 (stereo unspecified) -8.93%
O=C(CSc1ncc(CO)n1Cc1ccccc1)Nc1nc2ccccc2s1 -40.8%
Cc1ccn2c(Nc3ccc(F)cc3)c(-c3ccc(C)o3)nc2c1 -11.6%
COC(=O)[C@@H]1CC2=CC(=O)CC[C@]2(C)[C@@]23O[C@@H]2C[C@@]2(C)[C@@H](CC[C@@]24CCC(=O)O4)[C@H]13 -16.7%
Cc1nn(C(=O)c2ccc(Cl)cc2)c(C)c1Sc1ccc(Cl)cc1 -9.45%
CC(=O)c1sc2c(c1C)c(=O)n(-c1ccc(Cl)cc1)c(=O)n2Cc1cc(=O)n2cc(Cl)ccc2n1 -9.84%
CCCCOc1ccc(OC(=O)c2sc3ncn(Cc4cccc(F)c4)c(=O)c3c2C)cc1 -9.91%
COc1cc2nc(SCc3ccc(Cl)cc3)n3nc(CCn4nc(C)cc4C)nc3c2cc1OC 0.517%
CCCSc1nc2sc3c(c2c(=O)n1-c1ccccc1)CCC(C)C3 (stereo unspecified) 3.54%
Cc1cc(NC(=O)CSc2nc(-c3ccccc3F)nc3c2c(=O)n(C)c(=O)n3C)no1 -17.6%
Cc1oc2c(c1C(=O)NCc1cccc(Br)c1)C1=NCCN1C=N2 -3.11%
COc1cc(NC(=O)C(CC(C)C)NS(=O)(=O)c2ccc3c(c2)CCCC(=O)N3)cc(OC)c1 (stereo unspecified) 3.01%
Cc1ccc(CNC(=O)CCCn2c(=O)c3ccccc3n(CC(=O)C(C)(C)C)c2=O)cc1 -1.49%
CCOC(=O)Cn1c(=O)n(CC2CCCO2)c2nc(-c3ccc(OC)cc3OC)nc(C(N)=O)c21 (stereo unspecified) -20.1%
COc1cccc(NC(=O)c2sc3nc(N4CCOCC4)c4c(c3c2N)CC(C)(C)OC4)c1 -26.8%
Cc1cccc(NC(=O)NCCn2c(=O)oc3ccc(C)cc32)c1 -20.1%
COc1cccc(NC(=O)Cn2cc(C(=O)C3CCCCC3)c3ccccc32)c1 -11.6%
CCOC(=O)c1c(NC(C)=O)c2c3c(sc2n1Cc1nc(-c2ccccc2OCC)oc1C)CCCC3 -9.33%
Cc1ccc(/C=C(\C#N)C(=O)Nc2cc(C)ccc2C)cc1 -16.3%
Cc1ccc(C)c(N2CCN(C(=O)c3cnc4c(-c5ccccc5)c(C)nn4c3C)CC2)c1 -3.57%
Cc1ccc(C)c(CN2C(=O)c3ccccc3S(=O)c3ccc(C(=O)NCc4ccccc4Cl)cc32)c1 (stereo unspecified) -5.26%
COc1cc(C)c(Cl)cc1S(=O)(=O)NCCc1c(C)[nH]c2ccccc12 -10.9%
COc1cccc(CNC(=O)CN2C(=O)N(c3cc(C)ccc3C)S(=O)(=O)c3ccccc32)c1OC -6.61%
COc1ccc2oc(=O)c(-c3csc(/C(C#N)=C/c4ccc(F)cc4)n3)cc2c1 -5.81%
COc1ccc(CNC(=O)CN(c2ccc(C)cc2)S(=O)(=O)c2c(C)n[nH]c2C)cc1 2%
CCOc1ccc(NC(=O)Cn2c(=O)n(-c3ccc(C)cc3)c(=O)c3cc(OC)c(OC)cc32)cc1 -14.6%
COc1ccccc1N1CCN(C(=O)C2CCN(S(=O)(=O)c3cnc[nH]3)CC2)CC1 -11.7%
COc1ccc(CNC(=O)c2cc3c(-c4ccccc4F)nn(C)c3s2)c(OC)c1 -9.21%
Brc1ccccc1-n1ncc2c1ncn1nc(Cc3ccccc3)nc21 0.339%
O=c1cc(CSc2ncn[nH]2)[nH]c2c(Cl)cccc12 5.25%
Cc1ccc2c(c1)N(C(=O)CCC(=O)Nc1ccccc1Cl)CC(C)O2 (stereo unspecified) -2.48%
O=C(Nc1ccc(-c2cc(C(F)(F)F)nn2-c2ccccc2)cc1)c1cccc(F)c1 -40.7%
CCN1CCC(N(Cc2cccc(OC)c2)C(=O)Nc2cccc(C(F)(F)F)c2)CC1 -6.16%
CCN(CC)c1ccc(C(=O)NCc2ccc3c(c2)CCN3C(=O)c2ccccc2)cc1 -10.4%
CCOc1ccc(C2c3c(-c4ccc(C)cc4)n[nH]c3C(=O)N2c2ccc(Cl)cc2)cc1 (stereo unspecified) -8.35%
